Source: paper PMC4336329 (PLoS ONE, 2015)
Screen size: about 310,000 compounds; about 14,000 (4.5%) showed an effect of 50% or more. Effects have a minus sign here. The list shows a part of the results.

biological target: human ether-à-go-go-related gene (hERG) potassium channel (human, UniProt Q12809); assay: primary screen, population patch clamp on CHO cells stably expressing hERG
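Note: peak tail current of the secondary pulse compared with the same well before compound.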

Chain of human ether-à-go-go-related gene (hERG) potassium channel (Q12809 whole entry, looked up): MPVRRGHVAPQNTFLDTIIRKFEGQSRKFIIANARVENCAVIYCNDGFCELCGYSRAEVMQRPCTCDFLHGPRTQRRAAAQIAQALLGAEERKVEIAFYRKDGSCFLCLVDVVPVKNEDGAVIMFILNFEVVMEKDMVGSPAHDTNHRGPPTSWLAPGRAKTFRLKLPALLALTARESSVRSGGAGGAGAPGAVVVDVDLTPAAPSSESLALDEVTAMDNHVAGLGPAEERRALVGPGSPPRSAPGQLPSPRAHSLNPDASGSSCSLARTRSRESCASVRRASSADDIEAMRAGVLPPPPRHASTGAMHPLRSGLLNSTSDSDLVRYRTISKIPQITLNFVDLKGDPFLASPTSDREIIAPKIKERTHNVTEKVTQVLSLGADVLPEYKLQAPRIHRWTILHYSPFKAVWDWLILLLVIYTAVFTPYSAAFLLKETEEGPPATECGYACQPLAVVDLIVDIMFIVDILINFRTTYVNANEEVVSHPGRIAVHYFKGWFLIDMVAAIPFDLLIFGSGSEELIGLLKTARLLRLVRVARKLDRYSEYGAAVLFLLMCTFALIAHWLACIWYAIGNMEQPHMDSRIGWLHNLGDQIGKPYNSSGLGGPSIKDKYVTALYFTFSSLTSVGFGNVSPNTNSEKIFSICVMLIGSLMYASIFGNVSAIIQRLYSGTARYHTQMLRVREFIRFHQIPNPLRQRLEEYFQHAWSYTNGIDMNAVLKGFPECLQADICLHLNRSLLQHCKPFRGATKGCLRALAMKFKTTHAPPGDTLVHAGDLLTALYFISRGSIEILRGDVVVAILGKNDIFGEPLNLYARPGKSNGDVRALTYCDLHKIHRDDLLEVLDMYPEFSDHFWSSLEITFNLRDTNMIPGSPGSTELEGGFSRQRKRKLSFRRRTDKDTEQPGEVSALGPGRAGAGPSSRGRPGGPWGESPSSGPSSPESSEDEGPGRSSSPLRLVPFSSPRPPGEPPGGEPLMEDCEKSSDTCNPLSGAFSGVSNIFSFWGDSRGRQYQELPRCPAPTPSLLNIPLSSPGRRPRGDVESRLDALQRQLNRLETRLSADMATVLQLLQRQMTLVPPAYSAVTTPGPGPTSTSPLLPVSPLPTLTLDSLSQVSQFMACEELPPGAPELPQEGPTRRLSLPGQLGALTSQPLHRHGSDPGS

First: O=C(NNc1nc(-c2ccc(F)cc2)cs1)c1ccccc1
Second: O=C(NNC(=O)c1cccnc1)Nc1cccc2ccccc12
The “hERG current change (%, negative = inhibition) at 10uM” value of the first is lower: 4.96% for the first, 13.4% for the second.

First: Cc1c(OCC(N)=O)ccc2c(-c3ccccc3)cc(=O)oc12
Second: O=C(COc1ccc2ccccc2c1Br)NNC(=O)Nc1ccccc1
The “hERG current change (%, negative = inhibition) at 10uM” value of the first is higher: 5.53% for the first, 0.428% for the second.

Compared with `CCCOc1ccc(-c2nnc(-c3ccncc3)o2)cc1`, `CN=c1scc(-c2ccc([N+](=O)[O-])cc2)n1/N=C/c1ccco1` is higher in “hERG current change (%, negative = inhibition) at 10uM” value: -2.27% for the first, 11.6% for the second.

Going from `Cc1cnc(C(=O)Nc2ccc(N3CCOCC3)cc2)cn1` to `O=C(NCc1ccccc1Cl)C1CCN(S(=O)(=O)N2CCOCC2)CC1`, the “hERG current change (%, negative = inhibition) at 10uM” value rises from 9.4% to 12.9%.

Going from `COc1cc(CNC2CCCC2)cc(Br)c1OCC(=O)Nc1ccccc1C` to `COc1ccc(NC(C)=O)cc1S(=O)(=O)NC1CCSc2ccccc21` (stereo not drawn), the “hERG current change (%, negative = inhibition) at 10uM” value falls from -1.01% to -23%.

Going from `CCCS(=O)(=O)N1CCC(C(=O)N2CCC(Cc3ccccc3)CC2)CC1` to `COCc1ccc(C(=O)N2CCC(CCC(=O)Nc3cccc(C)c3)CC2)s1`, the “hERG current change (%, negative = inhibition) at 10uM” value rises from -63% to -15.1%.

Compared with `COc1ccccc1-n1c(SCC(=O)N2CCCCC2)nnc1-c1ccccc1O`, `COc1cccc(N2C(=O)CC(N3CCc4ccccc4C3)C2=O)c1` (stereo not drawn) is higher in “hERG current change (%, negative = inhibition) at 10uM” value: -12.1% for the first, 13.1% for the second.

Compared with `Cc1ccccc1-n1ncc2c1CC(C)(C)CC2NC(=O)CCC(F)(F)F` (stereo not drawn), `CNC(=O)NC(=O)COC(=O)c1cccc(S(=O)(=O)N2CC3(C)CC2CC(C)(C)C3)c1` (stereo not drawn) is lower in “hERG current change (%, negative = inhibition) at 10uM” value: -3.52% for the first, -14.4% for the second.

First: Cc1noc(C)c1C(=O)NC(C)C12CC3CC(CC(C3)C1)C2 (stereo not drawn)
Second: Cl.O=C(NCCN1CCCC1)c1ccc(Cl)cc1Cl
The “hERG current change (%, negative = inhibition) at 10uM” value of the first is higher: 3.87% for the first, -1.56% for the second.

Compared with `COCCNC(=O)CN(c1ccc(C)cc1)S(=O)(=O)c1ccc(SC)cc1`, `Cc1cccc(N(O)C(=O)Nc2cccc(Cl)c2)c1` is higher in “hERG current change (%, negative = inhibition) at 10uM” value: -31.7% for the first, 13.5% for the second.

Going from `CCOCCCNC(=O)CCc1nnc2ccc(N3CCCCC3)nn12` to `COC(=O)c1nc(C(=O)OC)c(C(=O)OC)nc1C(=O)OC`, the “hERG current change (%, negative = inhibition) at 10uM” value falls from 11.1% to 11%.

Compared with `O=C(O)c1cnc(-c2ccccc2)nc1Sc1cccc(Cl)c1`, `COC(=O)C1=C[C@@H](C(=O)OC)[C@@H]2C3=C(C(=O)[C@]2(C)NC(=O)c2ccccc2)[C@H](C)n2c(=O)n(C)c(=O)n2[C@@H]3C1` is lower in “hERG current change (%, negative = inhibition) at 10uM” value: 26.7% for the first, 0.851% for the second.
